PubChem BioAssay AID1347417 (National Center for Advancing Translational Sciences (NCATS), 2020)
Screen size: about 120,000 compounds; about 5,300 (4.4%) were called active. Inconclusive results, whose numbers are uncertain, are shown with a selection of clear calls. The call rests on the fitted dose curve; in most records, active means well fitted inhibition curve with a large enough effect; inconclusive means small, poorly fitted or top-dose-only effect; inactive means no such curve, though single readings can be large or run the other way. Potencies beside an inconclusive call are fits to weak or partial responses and may not hold up.

test: qHTS Primary assay for Inhibitors of Plasmodium falciparum Dd2 growth in vitro; further: nearly all actives have a fitted effect of over 65% in size;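 on activity, negative = inhibition: plate controls were DMSO vehicle for no effect and reference drug for full effect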; details: P. falciparum Dd2 growth, SYBR Green, 72 h; activity, negative = inhibition: at 28.9 µM (top of the series) unless noted; series mostly up to 28.9 µM
Method in brief: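 Readout: SYBR Green fluorescence, 485 nm excitation, 535 nm emission, after ~16 h lysis at 37C. Before that, Dd2-infected red cells (2.5% hematocrit) grew 72 h with compound, 29 uM top final concentration.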
Potency means the concentration at half of the fitted maximal effect; tags describe the fitted curve by direction and shape.

Compound	outcome	activity, negative = inhibition	Potency
CC(C)c1noc(-c2cn(C3CCN(C(=O)c4ccsc4)CC3)nn2)n1	inactive		
Cn1cc(-c2cnc3[nH]cc(CC(=O)Nc4ccccc4Cl)c3c2)cn1		inactive: -18.9% [at 44.1 µM]	
O=C(COc1ccc(F)cc1)N1CC(Oc2cccc(-c3nc(-c4ccccc4)no3)c2)C1			active: 2.24 µM
CCc1nc(-c2c3n(c(=O)n(CC(=O)Nc4ccc(F)c(Cl)c4)c2=O)CCCC3)no1		inactive: -4.44%	
Cc1ccc(C(CC(=O)Nc2ccc(F)cc2)c2c[nH]c3ccccc23)cc1 (stereo not given)			inconclusive: 0.251 µM [inhibitor, full curve, poor fit]
Cc1ccc(CNC(=O)C2Cn3cccc3C(=O)N2Cc2cccnc2)o1 (stereo not given)			inconclusive: 7.08 µM [inhibitor, partial curve, poor fit]
CCN(CC)C(=O)CSc1nc2cc3c(cc2c(=O)n1Cc1ccc(C(=O)NCCc2ccc(OC)c(OC)c2)cc1)OCO3			inconclusive: 10 µM [inhibitor, single point]
CCOc1ccccc1NC(=O)Cn1c(=O)n(Cc2ccccc2)c(=O)c2c(C)c(C(=O)N(C)C)sc21			active: 3.16 µM
CCOc1cc(CNc2ccc(O)cc2)cc(Br)c1OCc1ccccc1			inconclusive: 10 µM [inhibitor, single point]
Cn1ccc2ccc(C(=O)N3CCC(C#N)(c4ccccc4)CC3)cc21		inactive: -16.2%	
CCCN(C(=O)c1cc2c(Cl)nc3ccccc3c2s1)c1cccc(C)c1			inconclusive: 11.2 µM [inhibitor, single point]
COC(=O)N1CCc2nc(C(C)C)nc(-c3ccc(O)cc3)c2C1			inconclusive: 22.4 µM [inhibitor, partial curve, poor fit]
Cc1ccc(C(=O)N2CC[C@H](N3CCOCC3)[C@H](CCCO)C2)cc1Cl		inactive: -9.75%	
CN(Cc1nccn1C)Cc1cnc(S(=O)(=O)CC2CC2)n1CC1CCCCC1			inconclusive: 11.2 µM [inhibitor, partial curve, poor fit]
COc1ccccc1CN1CC[C@@](C)(O)[C@H](N2CCCC2)C1			inconclusive: 1.78 µM [inhibitor, single point]
CC(C)N(C)C(=O)CN1C(=O)C2(CCNCC2)Nc2ccccc21		inactive: -19.9%	
COc1ccc(N2CC(c3noc(-c4ccc(C)cc4C)n3)CC2=O)cc1 (stereo not given)		inactive: 41.6%	
Cc1ccc(S(=O)(=O)N2CCC(Oc3ccc(C(N)=O)cn3)CC2)cc1	inactive		
CN(C)CCN1C(=O)CC[C@]2(C(=O)NCc3cc(F)cc(F)c3)CCCC[C@@H]12			inconclusive: 17.8 µM [inhibitor, single point]
COC[C@@H]1[C@H](NC(=O)c2cc(S(N)(=O)=O)ccc2OC)[C@@H]2CCO[C@H]12		inactive: -9.56%	
COc1ncccc1Nc1cnc2ccc(N(C)C)nn12	inactive [at 44.1 µM]		
c1cncc(Nc2cc3c(cn2)CN(CC2CCCCC2)CCN3)c1			inconclusive: 3.16 µM [inhibitor, single point]

Compound	outcome	activity, negative = inhibition	Potency
COc1cc(NC(=O)C[C@H]2NC(=O)c3ccccc3NC2=O)ccc1-n1nc(C)cc1C			inconclusive: 20 µM [inhibitor, single point]
COCC(=O)N[C@@H]1CN(Cc2ccc(C)cc2C)C[C@H]1CO			inconclusive: 6.31 µM [inhibitor, partial curve, poor fit]
COc1ccc(CCNC(=O)c2noc(-c3ccc[nH]c3=O)n2)cc1OC		inactive: 0.765%	
Cc1ccccc1OCc1nc(C2CN(C(=O)Cc3cccc(F)c3)C2)no1		inactive: -28.4%	
Cc1nn(C)c(C)c1CCC(=O)N[C@@H]1CN(Cc2ccccc2)C[C@H]1CN(C)C			inconclusive: 8.91 µM [inhibitor, single point]
COc1ccc(CNC(=O)[C@@H]2CCC[C@@H](NC(=O)c3ccccc3)CN(C)C(=O)C2)cc1			inconclusive: 1.58 µM [inhibitor, single point]
CNC(=O)[C@@H]1C[C@H](Oc2ccccc2)CN1C(=O)c1ccc(OC)nc1		inactive: -15.9%	
COc1ccc(CNC(=O)c2ccc3c(c2)N(Cc2ccccc2)C(=O)c2ccccc2S3(=O)=O)cc1			inconclusive: 17.8 µM [inhibitor, single point]
COc1ccc(-c2cc3nc(C4CCN(C(=O)OC(C)(C)C)CC4)c(C(=O)Nc4cc(Cl)cc(Cl)c4)cn3n2)cc1			inconclusive: 10 µM [inhibitor, single point]
CCOc1ccccc1N(C)C(=O)c1nn(-c2ccc(C)cc2)c(=O)c2c1c1ccccc1n2C	inactive		
C=CCNC(=O)N[C@H]1[C@H](O)[C@@H](N(C)CCN(C)C)[C@@H]2OC[C@H]1O2	inactive [at 44.1 µM]		
CN1CCCCCCN(CC2CCCCC2)[C@H]2CCC[C@H]2C1=O			inconclusive: 2 µM [inhibitor, single point]
Cc1ccc2nc(CO[C@H]3CN(Cc4ccc(Cl)cc4)C[C@H]3F)[nH]c2c1		inactive: -5.07% [at 44.1 µM]	
CCC(Oc1ccccc1F)C(=O)Nc1c(C(=O)c2ccccc2)oc2ccccc12 (stereo not given)			inconclusive: 20 µM [inhibitor, partial curve, poor fit]
O=C([C@@H]1C[C@H](Oc2cccnc2)CN1C(=O)C1CC=CC1)N1CCOCC1		inactive: -6.71%	
CC(C)(C)OC(=O)N1CCC(c2c(C(=O)NCc3ccc4c(c3)OCO4)cnn2-c2ccc(F)cc2F)CC1			active: 7.94 µM
COc1ccc2cc1Nc1ccc(cc1)C[C@H](NC(=O)Cc1cccc(Cl)c1)C(=O)N(C)[C@H](C(=O)NCCC(C)C)C2			inconclusive: 10 µM [inhibitor, single point]
COc1ccc(Br)cc1CNC(=O)CCCn1c(=O)c2cccn2c2ccccc21			inconclusive: 20 µM [inhibitor, single point]
COCCN[C@@H]1C[C@@H]2c3[nH]c4ccccc4c3C[C@@H](C(=O)OC)N2[C@H](c2ccc(F)c(F)c2)C1			inconclusive: 3.55 µM [inhibitor, partial curve, poor fit]
COc1ccc(NC(=O)c2ccc3c(c2)N(C)C2CCCCCN2C3=O)c(OC)c1 (stereo not given)			inconclusive: 2.82 µM [inhibitor, single point]
CCCCN(C)CCNC(=O)c1cc(-c2cccnc2)nc2ccc(S(=O)(=O)N3CCC(C)CC3)cc12			active: 5.01 µM
CN(Cc1ccccc1)c1nc(-c2ccc(F)cc2)cc(C(F)(F)F)n1			inconclusive: 17.8 µM [inhibitor, single point]

Compound	outcome	activity, negative = inhibition	Potency
CC(C)CNC(=O)N1CCC(N2C(=O)C3(CCCCC3)C2c2ccncc2)CC1 (stereo not given)			inconclusive: 11.2 µM [inhibitor, single point]
Cc1ccc2c(ccn2CCNC(=O)Cn2nc3c(cc2=O)CCCCC3)c1			inconclusive: 17.8 µM [inhibitor, single point]
Cc1ccccc1CNC(=O)c1ccc(-n2c(C)cc3c2CCCC3)cc1			active: 10 µM
COc1cc(C(=O)NCC(c2cccnc2)N2CCN(c3ccc(F)cc3)CC2)cc(OC)c1OC (stereo not given)			inconclusive: 17.8 µM [inhibitor, partial curve, poor fit]
O=c1ncn(Cc2ccccc2)c2ccc(-c3ccccc3)nc12			inconclusive: 31.6 µM [inhibitor, single point]
CN(C)c1ccc(C(=O)N2CCN3C(=O)c4cc(-c5ccc6c(c5)OCO6)ccc4NC(=O)[C@H]3C2)cc1			inconclusive: 0.0708 µM [inhibitor, full curve, poor fit]
Cc1ccc(-c2noc(CN(C3CCCCC3)S(=O)(=O)c3ccc(C)cc3)n2)cc1			inconclusive: 17.8 µM [inhibitor, single point]
O=C(CC1CCOCC1)Nc1ccc(OC(F)(F)F)cc1			inconclusive: 4.47 µM [inhibitor, partial curve]
CCN1CCCCC12Cc1ccccc1CN(C(C)=O)C2 (stereo not given)			inconclusive: 11.2 µM [inhibitor, partial curve, poor fit]
COc1ccc(CCNC(=O)NCc2noc3ccccc23)c(OC)c1		inactive: 11.6%	
CN(C)c1ccc(C(CNS(=O)(=O)c2ccc(Cl)cc2)N2CCCC2)cc1 (stereo not given)			active: 12.6 µM
CC(C)(C)c1ccc(-c2cc(C[C@H]3CNCC[C@H]3CC(=O)N3CCCCC3)no2)cc1			active: 5.01 µM
COC(=O)c1sccc1NC(=O)N1CCCC1c1noc(COc2ccc(F)cc2)n1 (stereo not given)			inconclusive: 17.8 µM [inhibitor, single point]
O=S(=O)(c1ccc(-n2cccn2)cc1)N1CCCC2(CCNC2)C1 (stereo not given)			inconclusive: 7.08 µM [inhibitor, partial curve, poor fit]
CCn1ncc(N2CCCC(CC(=O)N3CCN(c4cccc(Cl)c4)CC3)C2)cc1=O (stereo not given)			inconclusive: 3.98 µM [inhibitor, single point]
Cc1cc(C(=O)N2C[C@H](NC(=O)Cn3nnnc3N)[C@@H](C3CC3)C2)c(C)o1		inactive: -6.61%	
CCc1cc(CN(C)C(=O)c2cc(COc3ccccc3F)[nH]n2)on1			inconclusive: 1 µM [inhibitor, full curve, poor fit]
CC1(C)[C@H](Cc2cc(COc3ccccc3)on2)C[C@@H]1NC1CCOCC1			active: 10 µM
Cc1cccc(-n2nc(-c3c(C)nc4scc(CC(=O)N5CCCCC5)n4c3=O)cc2C)c1C			inconclusive: 1.58 µM [inhibitor, single point]
O=C(NC1CC1)c1ccc(Cn2c(SCc3cccc(F)c3)nc3cccnc32)cc1			inconclusive: 7.94 µM [inhibitor, single point]
O=C(NCC(c1cccnc1)N1CCc2ccccc2C1)c1ccc(F)c(F)c1 (stereo not given)		inconclusive: -55.5% [inhibitor] [at 5.79 µM]	
